In the supplement of paper PMC9046079:
Where a name gives a salt, the structure may show the parent alone. ± gives the standard deviation of the averaged measurements. Some of the results follow.

System: murine small intestinal organoids (ENR+CD Paneth differentiation)
Experiment: basal (non-stimulated) secreted lysozyme activity relative to plate median (log10 fold change); higher = more Paneth cell lysozyme secretion
Settings: 10 µM; 6 d
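Also: ISC-enriched organoid precursors grown as 2.5D pseudo-monolayer on Matrigel, compound given on day 0 and day 3, plate values LOESS-normalized before median fold change, three murine donors.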

| Structure (SMILES) | basal (log10) |
| --- | --- |
| O=C1CC[C@@]2(O)[C@H]3Cc4ccc(O)c5c4[C@@]2(CCN3CC2CC2)[C@H]1O5 [Naltrexone HCl] | 0.0347 ± 0.066 |
| COc1ccc(C(=O)N2CCCC2=O)cc1 [Aniracetam] | 0.012 ± 0.099 |
| C[C@](O)(COc1ccc(C#N)cc1)C(=O)Nc1ccc(C#N)c(C(F)(F)F)c1 | -0.0586 ± 0.049 |
| Cc1cc(SCc2sc(-c3ccc(C(F)(F)F)c(F)c3)nc2C)ccc1OCC(=O)O | -0.152 ± 0.14 |
| O=C(O)CNC(=O)c1c(O)c2ccccc2n(Cc2ccccc2)c1=O | -0.0445 ± 0.037 |
| C[C@@H]1O[C@@H](O[C@H]2C[C@@H](O)[C@]3(CO)[C@H]4[C@H](O)C[C@]5(C)[C@@H](C6=CC(=O)OC6)CC[C@]5(O)[C@@H]4CC[C@]3(O)C2)[C@H](O)[C@H](O)[C@H]1O [Ouabain] | 0.165 ± 0.32 |
| CCc1c(C(=O)C(N)=O)c2c(OCC(=O)O)cccc2n1Cc1ccccc1 | 0.0938 ± 0.16 |
| CCC(COC(=O)c1cc(OC)c(OC)c(OC)c1)(c1ccccc1)N(C)C (centres undefined) [Trimebutine] | -0.125 ± 0.15 |
| CN1CCc2cc3c(cc2C1C1OC(=O)c2c1ccc1c2OCO1)OCO3 (single isomer, unassigned; (+)) [(+)-Bicuculline] | 0.0202 ± 0.052 |
| Fc1cc(F)c2c(c1)[C@H]1C=CC[C@H]1C(c1cccnc1)N2 (some centres undefined) [Golgicide A] | -0.161 ± 0.18 |
| Cn1cc(C2=C(c3cn(C4CCN(Cc5ccccn5)CC4)c4ccccc34)C(=O)NC2=O)c2ccccc21 | -0.116 ± 0.031 |
| CCN(CC)C(=O)c1ccc(C2=CC3(CCNCC3)Oc3cccc(O)c32)cc1 | -0.0561 ± 0.041 |
| Cc1sc2c(c1C)C(c1ccc(Cl)cc1)=N[C@@H](CC(=O)OC(C)(C)C)c1nnc(C)n1-2 | -0.257 ± 0.11 |
| COc1cc(-n2c(=S)[nH]c3ccccc3c2=O)c(Cl)cc1Cl [Mdivi-1] | -0.268 ± 0.096 |
| O=c1[nH]c2ccc(Cl)cc2c(N[C@@H]2CN3CCC2CC3)c1-c1nc2ccccc2[nH]1 | -0.14 ± 0.071 |
| CCCN1CCO[C@@H]2c3cc(O)ccc3OC[C@H]21 | 0.113 ± 0.038 |
| N[C@@H]1C[C@H]1c1ccccc1 [Tranylcypromine (2-PCPA) HCl] | 0.0163 ± 0.036 |
| CCOC(=O)c1cncn1[C@H](C)c1ccccc1 [Etomidate] | -0.00116 ± 0.15 |
| CC[C@@H]1/C=C/C=C/C[C@H](C)[C@H](O)[C@](C)(O)C(=O)[C@H](C)[C@@H](O)[C@H](C)C(=O)[C@H](C)[C@@H](O)[C@H](C)/C=C/C(=O)O[C@H]2[C@@H](C)[C@@H](CC1)O[C@@]1(CC[C@@H](C)[C@@H](C[C@H](C)O)O1)[C@@H]2C [Oligomycin A] | -0.223 ± 0.073 |
| Cc1ccc(-n2nccn2)c(C(=O)N2CCN(c3nc4cc(Cl)ccc4o3)CC[C@H]2C)c1 [Suvorexant (MK-4305)] | 0.0639 ± 0.12 |
| CN1CCCCC1Cn1cc(C(=O)c2cc([N+](=O)[O-])ccc2I)c2ccccc21 (centres undefined) | -0.00317 ± 0.0059 |
| Cc1sc2c(c1C)C(c1ccc(Cl)cc1)=N[C@@H](CC(=O)Nc1ccc(O)cc1)c1nnc(C)n1-2 | -0.256 ± 0.097 |
| O=C(O[C@H]1C[C@H]2CC[C@@H](C1)[N+]21CCCC1)C(O)(c1ccccc1)c1ccccc1 [Trospium chloride] | 0.0855 ± 0.058 |
| C=C1C[C@@H]2[C@H](CC[C@]3(C)C(=O)CC[C@@H]23)[C@@]2(C)C=CC(=O)C=C12 [Exemestane] | 0.00688 ± 0.1 |
| C[C@@]12N[C@@H](Cc3ccccc31)c1ccccc12 [(-)-MK 801 Maleate] | -0.259 ± 0.094 |
| O=[N+]([O-])/C=C/c1ccc2c(c1)OCO2 [MNS (3,4-Methylenedioxy-Œ≤-nitrostyrene, MDBN)] | -0.15 ± 0.16 |
| CC(=O)O[C@H]1C[C@@H]2CC[C@@H]3[C@H](CC[C@@]4(C)[C@H]3C[C@H]([N+]3(C)CCCCC3)[C@@H]4OC(C)=O)[C@@]2(C)C[C@@H]1[N+]1(C)CCCCC1 [Pancuronium dibromide] | 0.0347 ± 0.13 |
| CCOc1ccccc1-n1c(C(C)N2CCN(C(=O)COc3ccc(Cl)cc3)CC2)nc2ccccc2c1=O (centres undefined) [Erastin] | -0.0152 ± 0.13 |
| Cc1cc2c(C(C)C)c(O)c(O)c(C=O)c2c(O)c1-c1c(C)cc2c(C(C)C)c(O)c(O)c(C=O)c2c1O | -0.0519 ± 0.049 |
